Positions count from the first letter of the chain named. Values belong to the binder of their own block, whether it stands above or below them.
How the values were obtained:
PD-L1-his = target: T1, PD-L1-his (human, UniProt Q9NZQ7 part only, limits assumed); assay: BLI, Fortebio Octet RED96, antibody on AHC sensor, PD-L1-his in solution
T1 construct: also called human PD-L1 protein

[1] = target: T2, TIGIT-his (extracellular region of human TIGIT protein fused with his) (human, UniProt Q495A1 22-141); assay: BLI, Fortebio Octet RED96, antibody on AHC sensor, TIGIT-his in solution
T2 construct: also called antigen TIGIT-his
T2 sequence: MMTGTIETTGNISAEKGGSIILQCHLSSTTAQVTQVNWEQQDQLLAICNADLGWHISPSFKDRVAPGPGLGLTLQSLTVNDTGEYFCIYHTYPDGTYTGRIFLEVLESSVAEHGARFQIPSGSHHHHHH

[2] = target: T3, full-length TIGIT on hTIGIT-CHO-K1 cells (human, UniProt Q495A1 22-244); assay: FACS on hTIGIT-CHO-K1 cells
T3 construct: CHO-K1 cells stably transfected with pTargeT-TIGIT; also called TIGIT on cell surface
T3 sequence: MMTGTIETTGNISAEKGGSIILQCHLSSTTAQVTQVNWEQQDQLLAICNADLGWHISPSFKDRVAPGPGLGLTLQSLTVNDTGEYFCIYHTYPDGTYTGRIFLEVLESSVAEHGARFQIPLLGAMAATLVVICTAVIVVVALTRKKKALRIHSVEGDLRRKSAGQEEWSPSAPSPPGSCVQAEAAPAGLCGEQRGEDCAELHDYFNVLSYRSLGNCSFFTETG

[3] = target: T4, human PD-L1 on hPD-L1-CHO-K1 cells (human, UniProt Q9NZQ7); assay: FACS on hPD-L1-CHO-K1 cells
T4 construct: whole, on cells; The making of this cell line is not described

[4] = target: T4, human PD-L1 on hPD-L1-CHO-K1 cells; assay: FACS, blocking of PD-1-mFc binding to hPD-L1-CHO-K1 cells (competitor PD-1-mFc)
T4 sequence (Q9NZQ7 19-290): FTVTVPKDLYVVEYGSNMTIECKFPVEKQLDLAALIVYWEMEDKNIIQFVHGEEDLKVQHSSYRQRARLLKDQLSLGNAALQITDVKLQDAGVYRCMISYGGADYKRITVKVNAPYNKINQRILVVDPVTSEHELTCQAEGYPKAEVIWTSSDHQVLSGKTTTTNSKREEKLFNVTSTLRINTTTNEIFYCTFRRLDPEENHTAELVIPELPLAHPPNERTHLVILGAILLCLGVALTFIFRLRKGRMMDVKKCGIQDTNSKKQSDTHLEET

[5] = target: T5, TIGIT-mFc (extracellular region of human TIGIT with mIgG1-Fc tag) (human); assay: FACS, blocking of TIGIT-mFc binding to cells (TIGIT/CD155; cells printed as hTIGIT-CHO-K1)
T5 construct: A bought TIGIT-mFc (Acro Biosystems TIT-H5253) is used for immunization; also called recombinant humanized TIGIT-mFc
T5 chain: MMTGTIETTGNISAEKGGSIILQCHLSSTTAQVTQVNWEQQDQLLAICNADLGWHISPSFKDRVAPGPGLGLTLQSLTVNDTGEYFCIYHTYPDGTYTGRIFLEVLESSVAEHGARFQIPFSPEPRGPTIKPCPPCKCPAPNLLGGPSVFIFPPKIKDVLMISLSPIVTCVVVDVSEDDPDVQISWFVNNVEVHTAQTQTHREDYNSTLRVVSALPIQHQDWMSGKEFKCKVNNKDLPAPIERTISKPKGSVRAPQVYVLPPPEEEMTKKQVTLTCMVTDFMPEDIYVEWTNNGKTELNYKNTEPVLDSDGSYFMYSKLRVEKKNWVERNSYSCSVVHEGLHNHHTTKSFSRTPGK

PD-L1-his, sequence (Q9NZQ7 19-238 limits assumed): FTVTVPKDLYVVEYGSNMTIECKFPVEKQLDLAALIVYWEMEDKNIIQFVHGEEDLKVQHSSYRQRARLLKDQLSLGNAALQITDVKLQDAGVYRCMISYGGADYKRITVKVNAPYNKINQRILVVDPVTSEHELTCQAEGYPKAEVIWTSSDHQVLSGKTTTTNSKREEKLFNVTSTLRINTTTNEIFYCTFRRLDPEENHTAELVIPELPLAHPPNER

Kd (PD-L1-his): 2.67 nM
koff (PD-L1-his): 0.000472 s⁻¹
kon (PD-L1-his): 177000 M⁻¹ s⁻¹
Kd [1]: 2.49 nM
koff [1]: 0.00248 s⁻¹
kon [1]: 996000 M⁻¹ s⁻¹
EC50 [2]: 0.612 nM
EC50 [3]: 0.715 nM
IC50 [4]: 3.34 nM
IC50 [5]: 2.13 nM
B1: HuPL721-T2353-ScFv (bispecific antibody, human IgG4, kappa)
heavy: QVQLQESGPGLVKPSQTLSLTCTVSGDSITSGYWNWIRQHPGKGLEYIGYISYTGSTYYNLSLKSRVTISRDTSKNQFSLKLSSVTAADTAVYYCARYILWLRHFDYWGQGTLVTVSSASTKGPSVFPLAPCSRSTSESTAALGCLVKDYFPEPVTVSWNSGALTSGVHTFPAVLQSSGLYSLSSVVTVPSSSLGTKTYTCNVDHKPSNTKVDKRV[gap - human IgG4 Fc with changes]GGGGSGGGGSEVQLVESGGGLVQPGGSLRLSCAASGFTFSDHWMSWVRQAPGKCMEWIGNIQYDGSYTNYAPSLKNRFTISRDNAKNSLYLQMNSLRAEDTATYYCTRGHFRITMASMGASASVYWGQGTMVTVSSGGGGSGGGGSGGGGSGGGGSDIQMTQSPSSLSASVGDRVTITCRTSQDIGNSLRWFQQKPGKAPKLLIHGATNLANGVPSRFSGSGSGTDFTLTISSLQPEDFATYYCLQHNEYPLTFGCGTKLEIK
light: DIVMTQSPDSLAVSLGERATISCKSSQSLLYSSNQKNSLAWYQQKPGQPPKLLIYWASTRESGVPDRFSGSGSGTDFTLTISSLQAEDVAVYYCQQYYGYPLTFGGGTKLEIKRTVAAPSVFIFPPSDEQLKSGTASVVCLLNNFYPREAKVQWKVDNALQSGNSQESVTEQDSKDSTYSLSSTLTLSKADYEKHKVYACEVTHQGLSSPVTKSFNRGEC

EC50 [3]: 0.82 nM
B2: HuPL743-T2353-ScFv (bispecific antibody, human IgG4, kappa)
heavy: QVQLQESGPGLVKPSQTLSLTCTVSGDSITSGYWNWIRQHPGKGLEYMGYISYTGSTYYNLSLKSRITISRDTSKNQYSLKLSSVTAADTAVYYCARYILWLRHFDYWGQGTLLTVSSASTKGPSVFPLAPCSRSTSESTAALGCLVKDYFPEPVTVSWNSGALTSGVHTFPAVLQSSGLYSLSSVVTVPSSSLGTKTYTCNVDHKPSNTKVDKRV[gap - human IgG4 Fc with changes]GGGGSGGGGSEVQLVESGGGLVQPGGSLRLSCAASGFTFSDHWMSWVRQAPGKCMEWIGNIQYDGSYTNYAPSLKNRFTISRDNAKNSLYLQMNSLRAEDTATYYCTRGHFRITMASMGASASVYWGQGTMVTVSSGGGGSGGGGSGGGGSGGGGSDIQMTQSPSSLSASVGDRVTITCRTSQDIGNSLRWFQQKPGKAPKLLIHGATNLANGVPSRFSGSGSGTDFTLTISSLQPEDFATYYCLQHNEYPLTFGCGTKLEIK
light: B1 light with A19V, I21M, L84V

Reference: patent publication US20240262915A1 (NANJING SANHOME PHARMACEUTICAL, published 2024)
